{"source": "paper PMC5892938", "note": "The list shows a part of the results. At the low end of the ranking the order means little.", "data": [{"biological_target": "GST-SBP-SLBP (stem-loop binding protein) (UniProt Q14493)", "assay": "targeted RNA Bind-n-Seq;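 note: DESeq read counts versus GST-SBP nonspecific binding control pulldown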", "settings": "RBNS binding buffer: 25 mM Tris pH 7.5, 150 mM KCl, 3 mM MgCl2, 0.1% Tween, 0.5 mg/mL BSA, 1 mM DTT; 27 nM protein, 750 pM RNA pool; temperature not stated; high values mean tight binding", "values": [{"sequence": "GGUCACGUCUCAAUCAACUCUUCCCCAGGAGUUUACUCCUGCUAUUUCAACAGCUCGCAGUCAAG", "binding signal (log2 fold change)": -0.0424}, {"sequence": "GGUCACGUCUCAAUCAACUCCCUCGAGGGGGGGAAAACCCCUUUACCCUCAUUAUCAACAGCUCGCAGUCAAG", "binding signal (log2 fold change)": 0.395}, {"sequence": "GGUCACGUCUCAAUCAACUCACUCGAGGGGGGGAAAACCCCUUUACCCUCACUCUCAACAGCUCGCAGUCAAG", "binding signal (log2 fold change)": -0.216}, {"sequence": "GGUCACGUCUCAAUCAACUCUUUUCCCAGGGAAAACCCUGGUUAUCUCAACAGCUCGCAGUCAAG", "binding signal (log2 fold change)": -0.0606}, {"sequence": "GGUCACGUCUCAAUCAACUCUUACGAGGGGGGGAAAACCCCUUUACCCUCACACUCAACAGCUCGCAGUCAAG", "binding signal (log2 fold change)": 0.321}, {"sequence": "GGUCACGUCUCAAUCAACUCAUUCCCCAGGGAAAUCCCUGGCAUUUUCAACAGCUCGCAGUCAAG", "binding signal (log2 fold change)": -0.0495}, {"sequence": "GGUCACGUCUCAAUCAACUCUACUCCAGGAGUUUACUCCUGCAUUUUCAACAGCUCGCAGUCAAG", "binding signal (log2 fold change)": 0.0643}, {"sequence": "GGUCACGUCUCAAUCAACUCAUUCUCAGGAGUUUUCUCCUGCUAAUUCAACAGCUCGCAGUCAAG", "binding signal (log2 fold change)": 0.0806}, {"sequence": "GGUCACGUCUCAAUCAACUCAACUCCCAGGGAAAACCCUGGUAAAUUCAACAGCUCGCAGUCAAG", "binding signal (log2 fold change)": -0.125}, {"sequence": "GGUCACGUCUCAAUCAACUCUUUCCCAGGAGUUUUCUCCUGCUUUUUCAACAGCUCGCAGUCAAG", "binding signal (log2 fold change)": 0.151}, {"sequence": "GGUCACGUCUCAAUCAACUCACACGAGGGGGGGAAAACCCCUUUACCCUCUUUAUCAACAGCUCGCAGUCAAG", "binding signal (log2 fold change)": 0.0022}, {"sequence": "GGUCACGUCUCAAUCAACUCAAUUCCCAGGGAAAUCCCUGGCAUAGUCAACAGCUCGCAGUCAAG", "binding signal (log2 fold change)": 0.0974}, {"sequence": "GGUCACGUCUCAAUCAACUCAUUUUCCAGGGAAACCCCUGGCUAUCUCAACAGCUCGCAGUCAAG", "binding signal (log2 fold change)": -0.0352}, {"sequence": "GGUCACGUCUCAAUCAACUCUACUCCAGGAGUUUUCUCCUGUUUUUUCAACAGCUCGCAGUCAAG", "binding signal (log2 fold change)": -0.0683}, {"sequence": "GGUCACGUCUCAAUCAACUCAUUAGAGGGGGGGAAAACCCCUUUACCCUCCAAAUCAACAGCUCGCAGUCAAG", "binding signal (log2 fold change)": -0.0743}, {"sequence": "GGUCACGUCUCAAUCAACUCUACUUCCAGGGAAAGCCCUGGCUAACUCAACAGCUCGCAGUCAAG", "binding signal (log2 fold change)": -0.0191}, {"sequence": "GGUCACGUCUCAAUCAACUCAAUUCCCAGGGAAAGCCCUGGUAUAUUCAACAGCUCGCAGUCAAG", "binding signal (log2 fold change)": 0.107}, {"sequence": "GGUCACGUCUCAAUCAACUCUUAAGAGGGGGGGAAAACCCCUUUACCCUCAAACUCAACAGCUCGCAGUCAAG", "binding signal (log2 fold change)": -0.145}, {"sequence": "GGUCACGUCUCAAUCAACUCAAUAGAGGGGGGGAAAACCCCUUUGCCCUCAUACUCAACAGCUCGCAGUCAAG", "binding signal (log2 fold change)": 0.0388}, {"sequence": "GGUCACGUCUCAAUCAACUCCCAAGAGGGGGGGAAAACCCCUUUACCCUCACAUUCAACAGCUCGCAGUCAAG", "binding signal (log2 fold change)": -0.146}]}]}
